Test results: PubChem BioAssay AID1721 (National Center for Advancing Translational Sciences (NCATS), 2009)
Out of some 290,000 compounds screened, about 1,100 (0.38%) were called active. This list was built around the results that the source calls inconclusive (neither active nor inactive); the mix of calls is not that of the screen. The call rests on the fitted dose curve; in most records, active means well fitted inhibition curve with a large enough effect; inconclusive means small, poorly fitted or top-dose-only effect, or another doubt; inactive means no such curve, though single readings can be large or run the other way. Where the call is inconclusive, the potency comes from a doubtful curve fit.
On the % scale 0 is the no-effect control and ±100 the full control effect; potency means the concentration at half of the fitted maximal effect; tags describe the fitted curve by direction and shape.

The molecules below were run against Pyruvate kinase (Leishmania mexicana) (UniProt Q27686) (assay: qHTS Assay for Inhibitors of Leishmania Mexicana Pyruvate Kinase (LmPK)). Conditions: purified LmPK, Kinase-Glo ATP luminescence, 1 h; activity change, negative = inhibition: at 57.5 µM (top of the series) unless noted.
Sequence of UniProt Q27686 (Q27686 whole entry, looked up): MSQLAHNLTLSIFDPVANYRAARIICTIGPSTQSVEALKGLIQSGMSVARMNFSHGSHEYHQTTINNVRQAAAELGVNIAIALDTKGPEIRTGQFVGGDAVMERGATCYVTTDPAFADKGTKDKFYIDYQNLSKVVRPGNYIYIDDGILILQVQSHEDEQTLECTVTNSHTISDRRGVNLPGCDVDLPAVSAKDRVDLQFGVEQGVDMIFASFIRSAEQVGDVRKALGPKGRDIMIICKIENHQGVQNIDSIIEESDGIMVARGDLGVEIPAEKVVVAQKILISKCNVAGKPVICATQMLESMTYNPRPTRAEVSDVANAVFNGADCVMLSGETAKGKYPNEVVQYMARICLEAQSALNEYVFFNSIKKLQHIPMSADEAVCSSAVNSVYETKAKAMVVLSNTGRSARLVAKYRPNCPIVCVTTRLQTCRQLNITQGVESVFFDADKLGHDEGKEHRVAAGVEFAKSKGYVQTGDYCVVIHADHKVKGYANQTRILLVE
Method in brief: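 Screened at intermediate enzyme activity to detect both inhibitors and activators: LmPK at 0.1 nM, with a 0.5 nM enzyme column as activation reference. PEP 0.5 mM, ADP 0.1 mM; ATP detected by luminescence after 1 h.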
In the case of `Cc1ccc(/C=N/c2sc3c(c2C#N)CCCCC3)o1`, the Potency is reported as inconclusive: 28.2 µM [falling, single point].
`COc1c(Cl)cccc1-c1cn2ccc(C)cc2n1` was tested, and the Potency was inconclusive: 12.6 µM [falling, partial curve].
In the case of `COc1ccc2c(=O)c(-c3ccc4c(c3)OCO4)coc2c1`, the Potency is reported as inconclusive: 7.94 µM [falling, partial curve].
With `Cc1ccc(-n2c(C3CC3c3ccc(Cl)cc3)n[nH]c2=S)cc1` (stereo not drawn) the Potency was active: 7.94 µM.
With `COc1cccc(NC(=O)c2ocnc2C)c1` the Potency was inconclusive: 25.1 µM [falling, partial curve].
With `CC(c1ccccc1)n1c(-c2ccncc2)n[nH]c1=S` (stereo not drawn) the Potency was inconclusive: 31.6 µM [falling, single point].
In the case of `Cn1cccc1/C=N/NC(=O)c1ccccn1`, the Potency is reported as inconclusive: 28.2 µM [falling, partial curve].
`Cc1ccc2c(c1)N=C(c1ccc(Cl)cc1)CO2` was tested, and the Potency was inconclusive: 14.1 µM [falling, partial curve].
In the case of `COc1cc(CNCC(C)C)cc(Br)c1OCC(=O)Nc1ccccc1`, the “activity change, negative = inhibition” value is reported as inactive: 3.23%.
With `Clc1ccc(CSc2nc3ccncc3[nH]2)cc1` the Potency was inconclusive: 5.01 µM [falling, single point].
`Cc1[nH]n(-c2ccc([N+](=O)[O-])cc2)c(=O)c1C=NCCN1CCN(C(=O)c2cccc(F)c2)CC1` was tested, and the Potency was inconclusive: 25.1 µM [falling, single point].
`CCOc1cc(/C=C2\SC(=N)N(c3nccs3)C2=O)ccc1OCCN1CCOCC1` was tested, and the Potency was inconclusive: 25.1 µM [falling, single point].
With `CCOc1cc(/C=C2\N=C(SC)SC2=O)cc([N+](=O)[O-])c1OC(C)=O` the Potency was inconclusive: 25.1 µM [falling, single point].
`Cc1cc2nc(-c3cccnc3SCC(=O)NC(C)C)[nH]c2cc1C` was tested, and the Potency was inconclusive: 7.94 µM [falling, partial curve].
In the case of `CCCC(=O)NC(c1ccc2c(c1)OCO2)c1cc(Cl)c2cccnc2c1O` (stereo not drawn), the “activity change, negative = inhibition” value is reported as inactive: 2.55%.
With `Fc1ccccc1/C=C/c1ccc2ccccc2n1` the Potency was active: 12.6 µM.
For `CCC(=O)Nc1ccc(C(=O)Nc2cccc(OC)c2)cc1`, the Potency was inconclusive: 20 µM [falling, partial curve].
In the case of `CCN1/C(=C2\C(=O)N(C)C(=S)N2C)C=Cc2ccccc21`, the Potency is reported as inconclusive: 25.1 µM [falling, partial curve].
For `COCCN1Cc2c(sc(C)c2C)N(C(=O)c2ccccc2)C1`, the “activity change, negative = inhibition” value was inactive: -0.0138%.
`COc1ccc(C2=NN(S(C)(=O)=O)C(c3cccs3)C2)cc1` (stereo not drawn) was tested, and the Potency was inconclusive: 35.5 µM [falling, single point].
`O=c1[nH]c2sc3c(c2c2nncn12)CCCC3` was tested, and the Potency was inconclusive: 22.4 µM [falling, partial curve, poor fit].
`CCCc1cc(-c2n[nH]c(=S)n2CC(C)C)cs1` was tested, and the Potency was inconclusive: 25.1 µM [falling, single point].
`O=C(COc1ccccc1Cl)NCCCNC(=O)c1ccco1` was tested, and the “activity change, negative = inhibition” value was inactive: 0.541%.
In the case of `O=C(Nc1ccccc1)c1ccc(-c2ccccc2C(F)(F)F)o1`, the “activity change, negative = inhibition” value is reported as inactive: -5.02%.
For `COc1ccc2cc(-c3csc(-c4cccnc4)n3)ccc2c1`, the “activity change, negative = inhibition” value was inactive: -4.55%.
With `N/C(=N\OC(=O)c1ccco1)c1cccc(Br)c1` the Potency was inconclusive: 28.2 µM [falling, single point].
For `c1ccc(-c2nc(-c3nccc4ccccc34)oc2-c2ccccc2)cc1`, the Potency was inconclusive: 14.1 µM [falling, partial curve].
`COc1cc(SC)ccc1C(=O)Nc1ccc(Br)cn1` was tested, and the Potency was inconclusive: 31.6 µM [falling, single point].
With `COCC(=O)N1CCC(Oc2ccc(C(=O)NCc3cc(C)no3)cc2)CC1` the “activity change, negative = inhibition” value was inactive: -5.37%.
In the case of `O=[N+]([O-])c1ccccc1/C=N/Nc1nccnc1Cl`, the Potency is reported as inconclusive: 17.8 µM [falling, partial curve].
In the case of `CCOc1ccccc1-n1c(SCC(=O)N2CCOCC2)nc2ccccc2c1=O`, the “activity change, negative = inhibition” value is reported as inactive: -0.0497%.
`CC1C(=O)NN=C1C(=O)N/N=C/c1ccco1` (stereo not drawn) was tested, and the Potency was inconclusive: 25.1 µM [falling, partial curve].
With `CN(CCC#N)c1ccc(/C=C(\C#N)c2ccccn2)cc1` the Potency was inconclusive: 28.2 µM [falling, partial curve].
For `COc1cc(OC)c(NC2c3ccccc3C(=O)N2c2cc(C)ccn2)cc1Cl` (stereo not drawn), the “activity change, negative = inhibition” value was inactive: 1.76%.
For `CC(=O)Oc1cccc2c1C(=O)c1c(OC(C)=O)cc(C(=O)O)cc1C2=O`, the Potency was inconclusive: 31.6 µM [falling, single point].
`COc1cc(OC)cc(C(=O)Nc2ccc(NC(=O)c3ccco3)c(C)c2)c1` was tested, and the Potency was inconclusive: 31.6 µM [falling, partial curve].
In the case of `Cc1cccc(Nc2nc(-c3ccc(O)c(O)c3)cs2)n1`, the Potency is reported as inconclusive: 14.1 µM [falling, partial curve].
`COc1ccc(CCn2c(=N)c(C(=O)NC3CCCC3)cc3c(=O)n4cccc(C)c4nc32)cc1` was tested, and the “activity change, negative = inhibition” value was inactive: 2.94%.
`COc1ccc(C(=O)NC(=S)N2CCNC(=O)C2)cc1Br` was tested, and the “activity change, negative = inhibition” value was inactive: 0.83%.
With `O=C(Nc1nc2ccccc2[nH]1)c1cccs1` the Potency was inconclusive: 28.2 µM [falling, single point].
In the case of `COc1ccc(OC)c(-n2c(-c3cc(-c4ccc(F)cc4)n[nH]3)n[nH]c2=S)c1`, the Potency is reported as active: 14.1 µM.
For `c1ccc(CSc2nc3ccccc3[nH]2)cc1`, the Potency was inconclusive: 15.8 µM [falling, partial curve].
In the case of `O=C(Nc1ccc2c(c1)OCCO2)c1ccccn1`, the Potency is reported as active: 5.01 µM.
For `CCc1ccc(NC(=O)Nc2ccsc2C(=O)OC)cc1`, the Potency was inconclusive: 35.5 µM [falling, single point].
In the case of `COc1cc2c(cc1OC)C(c1ccc(-c3ccc(Cl)c(Cl)c3)o1)=NCC2`, the Potency is reported as active: 12.6 µM.
For `Nc1c(C(=O)N2CCOCC2)sc2nc3c(cc12)CCCC3`, the Potency was inconclusive: 31.6 µM [falling, partial curve].
For `COc1ccc(/C=C/C(=O)c2ccccn2)cc1`, the Potency was active: 8.91 µM.
`Cc1ccc(-n2c(-c3cn(C)nc3C)n[nH]c2=S)cc1` was tested, and the Potency was inconclusive: 14.1 µM [falling, single point].
